{"source": "paper PMC4336329", "about": "(PLoS ONE, 2015)", "note": "Screen size: about 310,000 compounds; about 14,000 (4.5%) showed an effect of 50% or more. Effects have a minus sign here. The list shows a part of the results.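 Also: peak tail current of the secondary pulse compared with the same well before compound.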", "data": [{"molecular_target": "human ether-à-go-go-related gene (hERG) potassium channel (human, UniProt Q12809)", "sequence (Q12809 whole entry, looked up)": "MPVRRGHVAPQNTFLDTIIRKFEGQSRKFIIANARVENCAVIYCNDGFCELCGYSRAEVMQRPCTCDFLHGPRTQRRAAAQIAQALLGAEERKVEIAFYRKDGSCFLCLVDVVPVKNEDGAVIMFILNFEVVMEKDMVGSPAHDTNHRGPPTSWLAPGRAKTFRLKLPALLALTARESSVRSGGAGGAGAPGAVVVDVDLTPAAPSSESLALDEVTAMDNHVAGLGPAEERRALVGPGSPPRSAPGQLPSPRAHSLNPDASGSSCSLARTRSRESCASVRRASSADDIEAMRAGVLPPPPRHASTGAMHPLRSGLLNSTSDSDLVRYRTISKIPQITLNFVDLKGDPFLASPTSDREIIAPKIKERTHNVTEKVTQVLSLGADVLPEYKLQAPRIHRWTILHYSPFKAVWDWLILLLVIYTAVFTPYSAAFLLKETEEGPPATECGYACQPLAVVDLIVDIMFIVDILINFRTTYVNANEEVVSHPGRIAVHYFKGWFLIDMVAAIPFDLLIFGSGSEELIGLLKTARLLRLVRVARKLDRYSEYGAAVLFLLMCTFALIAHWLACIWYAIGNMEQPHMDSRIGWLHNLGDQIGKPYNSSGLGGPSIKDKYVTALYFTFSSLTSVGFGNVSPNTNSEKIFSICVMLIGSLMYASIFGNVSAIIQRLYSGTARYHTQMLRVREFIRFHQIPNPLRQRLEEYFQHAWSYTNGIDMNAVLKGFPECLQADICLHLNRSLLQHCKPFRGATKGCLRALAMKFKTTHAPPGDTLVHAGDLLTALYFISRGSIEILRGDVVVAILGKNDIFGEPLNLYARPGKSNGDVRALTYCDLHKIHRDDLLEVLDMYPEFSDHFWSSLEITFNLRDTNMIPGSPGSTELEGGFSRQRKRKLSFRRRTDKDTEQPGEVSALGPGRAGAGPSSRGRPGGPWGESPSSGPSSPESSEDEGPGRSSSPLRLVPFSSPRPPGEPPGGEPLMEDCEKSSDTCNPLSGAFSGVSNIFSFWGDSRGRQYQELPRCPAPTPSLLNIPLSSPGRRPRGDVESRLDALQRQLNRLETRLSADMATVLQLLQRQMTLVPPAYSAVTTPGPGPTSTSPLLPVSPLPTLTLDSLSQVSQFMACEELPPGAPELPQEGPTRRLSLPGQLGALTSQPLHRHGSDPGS", "assay": "primary screen, population patch clamp on CHO cells stably expressing hERG", "units": {"hERG current change (%, negative = inhibition) at 10uM": "%"}, "values": [{"smiles": "C=CCNc1nc(NC(C)(C)CO)nc(OCC)n1", "hERG current change (%, negative = inhibition) at 10uM": 6.88}, {"smiles": "CCN1C(=O)C(CC(=O)Nc2ccc(OC)cc2)N(CCc2ccccc2)C1=S", "note": "(stereo not drawn)", "hERG current change (%, negative = inhibition) at 10uM": -1.28}, {"smiles": "CC(C)C(c1nnnn1C1CCCCC1)N1CCN(c2ncccn2)CC1", "note": "(stereo not drawn)", "hERG current change (%, negative = inhibition) at 10uM": -3.13}, {"smiles": "CCOC(=O)C1=C(Cc2ccc(C)cc2)C(=O)c2ccccc2C1=O", "hERG current change (%, negative = inhibition) at 10uM": 12.4}, {"smiles": "COc1ccc2c(c1)N(C)C(=O)CC(c1ccccc1)=N2", "hERG current change (%, negative = inhibition) at 10uM": -4.57}, {"smiles": "CCOC(=O)c1c(NC(=O)C(c2ccccc2)c2ccccc2)sc2c1C1CCN2CC1.Cl", "hERG current change (%, negative = inhibition) at 10uM": 5.02}, {"smiles": "CC(Sc1nnc(-c2ccncc2)n1C)C(=O)Nc1nccs1", "note": "(stereo not drawn)", "hERG current change (%, negative = inhibition) at 10uM": 3.74}, {"smiles": "COc1cc(NC(=O)c2ccccc2F)ccc1NC(=O)c1cc2ccccc2o1", "hERG current change (%, negative = inhibition) at 10uM": 15.3}, {"smiles": "CCCN(CC#CC(O)(c1ccccc1)c1cccnc1)CCC", "note": "(stereo not drawn)", "hERG current change (%, negative = inhibition) at 10uM": -37.3}, {"smiles": "c1cc(CSc2nnc(-c3ccc4c(c3)OCO4)o2)ccn1", "hERG current change (%, negative = inhibition) at 10uM": -16.4}, {"smiles": "CC(C)c1ccc(NC(=O)c2cc(S(=O)(=O)N3CCCCC3)c[nH]2)cc1", "hERG current change (%, negative = inhibition) at 10uM": 4.26}, {"smiles": "Cn1c(=O)c2[nH]c(-c3ccccc3)c(O)c2n(C)c1=O", "hERG current change (%, negative = inhibition) at 10uM": 11.8}, {"smiles": "Cn1ccsc1=NC(=O)c1ccc(S(C)(=O)=O)cc1", "hERG current change (%, negative = inhibition) at 10uM": 19.8}, {"smiles": "CCN(CC)CCCNC(=O)c1ccc2c(=O)n(Cc3ccc4c(c3)OCO4)c(=S)[nH]c2c1", "hERG current change (%, negative = inhibition) at 10uM": -38.9}, {"smiles": "CC1(C)C2([N+](=O)[O-])CN3CC1([N+](=O)[O-])CN(C2)C3c1ccc(O)c(O)c1", "note": "(stereo not drawn)", "hERG current change (%, negative = inhibition) at 10uM": 12.2}, {"smiles": "CSCCC(C(=O)N(C)CC(=O)Nc1cccc(F)c1)N1C(=O)c2ccccc2C1=O", "note": "(stereo not drawn)", "hERG current change (%, negative = inhibition) at 10uM": -10.8}, {"smiles": "O=C1CCC(=O)O1", "hERG current change (%, negative = inhibition) at 10uM": 14}, {"smiles": "COC(=O)c1cc(C(=O)OC)cc(S(=O)(=O)Nc2ccc(Cl)c(N)c2)c1", "hERG current change (%, negative = inhibition) at 10uM": 13.5}, {"smiles": "Cc1cc(O)c(CN2CC=C(c3ccccc3)CC2)cc1C(C)C", "hERG current change (%, negative = inhibition) at 10uM": -14.1}, {"smiles": "Cc1ccc(NC(=O)CN2C(=O)NC3(CCCC3)C2=O)c(Cl)c1", "hERG current change (%, negative = inhibition) at 10uM": 4.78}, {"smiles": "CC(C)(C)c1oc(C(=O)O)cc1CN1CCOCC1.Cl", "hERG current change (%, negative = inhibition) at 10uM": 6.55}, {"smiles": "CCOC(=O)[C@H]1[C@H]2COc3ccccc3[C@@H]2N2C(=O)c3cc(Cl)ccc3NC(=O)[C@@]12C", "hERG current change (%, negative = inhibition) at 10uM": -4.58}, {"smiles": "CC(OC(=O)c1ccccc1NCc1ccco1)C(=O)Nc1ncc(Cl)cc1Cl", "note": "(stereo not drawn)", "hERG current change (%, negative = inhibition) at 10uM": 2.95}, {"smiles": "COc1cc(NC(=O)c2ccnc(N)c2)cc(C(=O)Nc2cccc(C(F)(F)F)c2)c1", "hERG current change (%, negative = inhibition) at 10uM": -31.3}, {"smiles": "CC(C)CNS(=O)(=O)c1ccc(CCC(=O)NCC2CCCO2)cc1", "note": "(stereo not drawn)", "hERG current change (%, negative = inhibition) at 10uM": 6.44}, {"smiles": "CC(CC(=O)N1CCN(S(=O)(=O)c2ccc(Cl)cc2)CC1)n1cncn1", "note": "(stereo not drawn)", "hERG current change (%, negative = inhibition) at 10uM": -3.5}, {"smiles": "CN(C)c1ccc(C(=O)C(O)c2ccc(C(C)(C)C)cc2)cc1", "note": "(stereo not drawn)", "hERG current change (%, negative = inhibition) at 10uM": 5.75}, {"smiles": "CCOCCCNC(=S)N1CCC(NC(=O)C23CC4CC(CC(C4)C2)C3)CC1", "hERG current change (%, negative = inhibition) at 10uM": -2.22}, {"smiles": "CCC1CCCCN1C(=O)COC(=O)c1cc(Br)ccc1Cl", "note": "(stereo not drawn)", "hERG current change (%, negative = inhibition) at 10uM": -7.89}, {"smiles": "O=S(=O)(/N=C(/Nc1cccc2ccccc12)c1ccccc1)c1ccccc1", "hERG current change (%, negative = inhibition) at 10uM": -7.72}, {"smiles": "Cc1ccc(N(CC(=O)NCc2ccc3c(c2)OCO3)S(C)(=O)=O)cc1", "hERG current change (%, negative = inhibition) at 10uM": -2.81}, {"smiles": "CCCCNS(=O)(=O)c1ccc(OC)c(C)c1", "hERG current change (%, negative = inhibition) at 10uM": 10.8}, {"smiles": "Cc1ccc(CN(Cc2ccc(C)o2)C(=S)NCC(=O)O)cc1", "hERG current change (%, negative = inhibition) at 10uM": 3.93}, {"smiles": "Cn1c(SCC(=O)Nc2ccccc2)nc2c([nH]c3ccccc32)c1=O", "hERG current change (%, negative = inhibition) at 10uM": 15.6}, {"smiles": "Cc1onc(-c2c(Cl)cccc2Cl)c1C(N)=S", "hERG current change (%, negative = inhibition) at 10uM": 12.8}, {"smiles": "NNC(=O)C1CCCN1S(=O)(=O)c1ccc(Cl)cc1", "note": "(stereo not drawn)", "hERG current change (%, negative = inhibition) at 10uM": -4.92}, {"smiles": "O=C(CSc1nc2ccc(Cl)cc2[nH]1)N1CCN(C(=O)c2ccco2)CC1", "hERG current change (%, negative = inhibition) at 10uM": -56.1}, {"smiles": "C/C(=N\\N=C1\\NC(=O)CC(C(=O)O)S1)c1cccs1", "note": "(stereo not drawn)", "hERG current change (%, negative = inhibition) at 10uM": 1.4}, {"smiles": "O=C(Nc1cccnc1)c1ccc(Cl)c(S(=O)(=O)N2CCCCC2)c1", "hERG current change (%, negative = inhibition) at 10uM": -15.6}, {"smiles": "CNC(=O)Oc1ccc2c(c1)C(=O)c1ccccc1CO2", "hERG current change (%, negative = inhibition) at 10uM": 6.76}, {"smiles": "CC1=C(C(=O)Nc2ccc(F)c(F)c2)C(c2cccs2)NC(=S)N1", "note": "(stereo not drawn)", "hERG current change (%, negative = inhibition) at 10uM": 4.53}, {"smiles": "Cc1cc(C)nc(NS(=O)(=O)c2ccc(N=NN(C)C)cc2)n1", "hERG current change (%, negative = inhibition) at 10uM": 1.26}, {"smiles": "COc1ccccc1NC(=O)CSc1nccn1Cc1ccc(F)cc1", "hERG current change (%, negative = inhibition) at 10uM": -11.1}, {"smiles": "Cc1cccc(N2CCN(S(=O)(=O)c3ccc4c(c3)C(C)(C)C(=O)N4C)CC2C)c1", "note": "(stereo not drawn)", "hERG current change (%, negative = inhibition) at 10uM": -6.38}, {"smiles": "COc1ccc(-c2cc(C(=O)N3CCOCC3)no2)cc1", "hERG current change (%, negative = inhibition) at 10uM": 19.9}, {"smiles": "Cc1ccc(CSCc2ccc(C(=O)O)o2)cc1", "hERG current change (%, negative = inhibition) at 10uM": 21.8}, {"smiles": "C(=N\\N1CCN(c2ccccn2)CC1)/C1=C(N2CCOCC2)C(=C/c2ccccc2)/CC1", "hERG current change (%, negative = inhibition) at 10uM": 13.9}, {"smiles": "Cc1cc(C)c(C(=O)Nc2ccc(Br)c(C(F)(F)F)c2)c(C)c1", "hERG current change (%, negative = inhibition) at 10uM": 12.1}, {"smiles": "C=CCNC(=O)c1ccc2c3n(nc2c1)-c1ccc(C)cc1CO3", "hERG current change (%, negative = inhibition) at 10uM": -24.6}, {"smiles": "O=c1[nH]c2ccccc2c(O)c1Cc1ccccc1", "hERG current change (%, negative = inhibition) at 10uM": 9.83}, {"smiles": "CCOC(=O)C1=C(CN2CCN(C(=O)c3ccco3)CC2)NC(=O)NC1c1ccc(F)cc1", "note": "(stereo not drawn)", "hERG current change (%, negative = inhibition) at 10uM": -62.9}, {"smiles": "COc1ccccc1C(CNC(=O)C(C)(C)Oc1ccc(Cl)cc1)N1CCCC1", "note": "(stereo not drawn)", "hERG current change (%, negative = inhibition) at 10uM": -45.1}, {"smiles": "COCc1cc(Sc2ccc(OC)cc2)nc(-c2ccccc2)n1", "hERG current change (%, negative = inhibition) at 10uM": 23}, {"smiles": "Cn1c(O)c(N=NC(=O)c2cccc(S(=O)(=O)N3CCCCC3)c2)c2ccccc21", "hERG current change (%, negative = inhibition) at 10uM": -16.1}, {"smiles": "CCCNC(=O)c1cccc(S(=O)(=O)N2CC3(C)CC2CC(C)(C)C3)c1", "note": "(stereo not drawn)", "hERG current change (%, negative = inhibition) at 10uM": -57.6}, {"smiles": "Cn1c(SCC(=O)Nc2nccs2)nnc1-c1ccncc1", "hERG current change (%, negative = inhibition) at 10uM": -14.3}, {"smiles": "O=C(Nc1ccccc1)c1nc[nH]c1C(=O)N1CCc2ccccc2C1", "hERG current change (%, negative = inhibition) at 10uM": 3.15}]}]}
